Source: PubChem BioAssay AID624418 (National Center for Advancing Translational Sciences (NCATS), 2012)
The whole screen tested about 410,000 compounds, of which about 530 (0.13%) were called active. The shares of active, inactive and inconclusive entries below differ from those in the screen. Calls come from the whole dose curve; as a rule, active = well fitted inhibition curve with a large enough effect; inconclusive = small, poorly fitted or top-dose-only effect, or another doubt; inactive = no such curve, though single readings can be large or run the other way. Potencies beside an inconclusive call are fits to weak or partial responses and may not hold up.

assay: qHTS of GLP-1 Receptor Inverse Agonists: Cytotox Screen; details: HEK293 cAMP-luciferase reporter cells, luminescence, 24 h; activity change, negative = inhibition: at 38.3 µM (top of the series) unless noted
Outline: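 Here, cytotoxicity is scored as loss of luminescence. The MLSMR collection was tested on cells seeded in medium containing 10% Nu serum, with a 24 hr compound exposure preceded by 12 hours of culture.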
% is set by controls: 0 for no effect and ±100 for the full control effect; potency is the fitted concentration of half-maximal effect.

| Structure (SMILES) | Potency | activity change, negative = inhibition |
| --- | --- | --- |
| Cc1c(Cl)cccc1NC(=S)NCCC(C)C | inconclusive: 28.2 µM [inhibitor, single point] |  |
| CC(=O)Nc1nnc(-c2ccc3c(c2)CCCC3)o1 | inconclusive: 20 µM [inhibitor, single point] |  |
| CCC1Oc2ccc(C)cc2N(CC(=O)NC2CCCCC2)C1=O (configuration not stated) | inactive |  |
| O=C(C1=C(c2ccccc2)C(=O)c2ccccc2C1=O)c1ccccc1 | inconclusive: 4.47 µM [inhibitor, full curve, poor fit] |  |
| CC(Oc1ccccc1)C(=O)Nc1c(C(=O)Nc2cccc(F)c2)oc2ccccc12 (configuration not stated) | inactive |  |
| CCOC(=O)c1cc2sccc2n1CC(=O)c1ccc2c(c1)OCCO2 | inconclusive: 2 µM [inhibitor, full curve, poor fit] |  |
| Cc1ccc(C)c(S(=O)(=O)NCc2ccc(C(=O)N3CCN(c4ccccc4)CC3)cc2)c1 | inconclusive: 28.2 µM [inhibitor, single point] |  |
| CCN(CC)C(=O)c1[nH]cnc1C(=O)NCC(=O)OCc1ccccc1 | inactive |  |
| COc1ccccc1-c1nc(SCC(=O)Nc2ccccc2F)n[nH]1 | inconclusive: 14.1 µM [inhibitor, partial curve, poor fit] |  |
| CCOC(=O)c1c(NC(=O)COc2ccc(Cl)cc2Cl)sc2c1CCCCC2 | inactive |  |
| COc1ccc(/C(C)=N/NC(=S)NCc2ccco2)cc1 | inconclusive: 11.2 µM [inhibitor, single point] |  |
| Cc1ccc(NC(C)C(=O)N/N=C/c2ccc([N+](=O)[O-])s2)cc1 (configuration not stated) | inconclusive: 28.2 µM [inhibitor, single point] |  |
| C/C(=C\C(=O)c1ccc(Br)cc1)NNC(=O)c1ccc(O)cc1 | inconclusive: 1.58 µM [inhibitor, full curve] |  |
| Cc1c(C)c(C)c2[nH]c(=S)[nH]c2c1C | inconclusive: 10 µM [inhibitor, single point] |  |
| Cc1ccccc1N=Nc1c(C)[nH]n(C(N)=S)c1=O | inconclusive: 0.501 µM [inhibitor, full curve, poor fit] |  |
| CCOc1cc2nc(-c3ccc(OC)c(OC)c3)nc(NCCCN3CCOCC3)c2cc1OC | inconclusive: 10 µM [inhibitor, partial curve, poor fit] |  |
| CCOCCCn1c(=S)[nH]c2cc(C(=O)N3CCOCC3)ccc2c1=O | inactive |  |
| CCCC1=Nc2cc(C(=O)NCc3ccco3)ccc2Sc2ccccc21 | inconclusive: 1.41 µM [inhibitor, full curve, poor fit] |  |
| O=[N+]([O-])c1ccc(SNc2ccccc2)c([N+](=O)[O-])c1 | inconclusive: 10 µM [inhibitor, single point] |  |
| COc1ccccc1CNC(=S)Nc1ccc(F)cc1 | inconclusive: 28.2 µM [inhibitor, single point] |  |
| CCc1sc(C(=O)N2CCCN(C)CC2)cc1Br | inactive |  |
| O=[N+]([O-])c1ccc(NNC(=S)Nc2ccccc2)cc1 | inconclusive: 15.8 µM [inhibitor, single point] |  |
| CCC(C(=O)Nc1cccc(S(=O)(=O)N(C)c2ccccc2)c1)c1ccccc1 (configuration not stated) | inactive |  |
| Cc1ccc(C(=O)NCc2nnc(SCC(=O)NC(C)c3ccccc3)n2C)cc1 (configuration not stated) | inactive |  |

| Structure (SMILES) | Potency | activity change, negative = inhibition |
| --- | --- | --- |
| Cc1cc(F)ccc1Oc1cc(NN2CCCCC2)c([N+](=O)[O-])cc1[N+](=O)[O-] | inconclusive: 3.55 µM [inhibitor, partial curve, poor fit] |  |
| Cc1cc(C)c(C(=O)N(CCN(C)C)CC2CCCN(Cc3ccccc3F)C2)o1 (configuration not stated) | inconclusive: 28.2 µM [inhibitor, single point] |  |
| COc1ccc(-n2c(=S)[nH]c3c(sc(=S)n3-c3ccccc3)c2=O)c(OC)c1 |  | inactive: -1.42% [at 0.307 µM] |
| COCc1cc(C)nc2c1C(=O)NC(c1ccc(C)cc1)N2Cc1ccccc1 (configuration not stated) | inactive |  |
| O=C(Nc1cccc(S(=O)(=O)Nc2ccc(Cl)cc2)c1)c1ccc2c(c1)OCCO2 | inconclusive: 10 µM [inhibitor, single point] |  |
| Cc1cc(C)c(C)c(OCCCCN(C)Cc2ccccc2)c1 | inconclusive: 28.2 µM [inhibitor, single point] |  |
| N#Cc1ccc(OCC(=O)N2CCc3ccccc32)cc1 | inactive |  |
| CC(C)CCNC(=O)CCc1nnc(Cc2c[nH]c3ccccc23)o1 | inactive |  |
| O=C(Nc1nccs1)c1cc2sccc2n1Cc1ccc(Cl)cc1 | inconclusive: 28.2 µM [inhibitor, single point] |  |
| COc1ccc(Cl)cc1NC(=O)CC(=O)Nc1cc(Cl)ccc1OC | inconclusive: 14.1 µM [inhibitor, single point] |  |
| CSC1=NC(C)(C)C=C(/C=C/c2ccc(Cl)cc2)N1 | inconclusive: 28.2 µM [inhibitor, single point] |  |
| COC(=O)c1ccc(NC(=O)Nc2ccc(F)c(Cl)c2)cc1 | inconclusive: 31.6 µM [inhibitor, single point] |  |
| Cc1cc(OCc2cc(C(=O)NCCN3CCCCC3CO)no2)cc(C)c1Cl (configuration not stated) | inconclusive: 31.6 µM [inhibitor, single point] |  |
| CC(C)(C)c1n[nH]c(=S)n(/N=C/c2cccs2)c1=O | inactive |  |
| COc1cccc2c(C)cc3nnc(SCC(=O)Nc4ccc(C)cc4)n3c12 | inactive |  |
| Cc1cccc(N(C)c2cc(-c3ccc(F)cc3)nc3ccnn23)c1 | inactive |  |
| Nn1c(Cc2ccccc2)nc2cc(Cl)ccc2c1=O | inactive |  |
| O=Nc1c(O)c2ccccc2c2ccccc12 | inconclusive: 28.2 µM [inhibitor, single point] |  |
| S=c1[nH]ccn1-c1cccc(Cl)c1Cl | inactive |  |
| Cc1cc(Cl)ccc1OCC(=O)N(Cc1sccc1C)C1CCS(=O)(=O)C1 (configuration not stated) | inactive |  |
| COc1ccc(/C=C2/SC(=S)N(NS(=O)(=O)c3ccc(C)cc3)C2=O)cc1 | inconclusive: 28.2 µM [inhibitor, single point] |  |
| CCn1c(=O)cc(OCC(=O)N2CCN(c3ccc(C)cc3)C(C)C2)c2ccccc21 (configuration not stated) | inactive |  |
| O=C(/C=C/c1ccco1)NC(=S)Nc1ccc(N2CCCC2)cc1 | inconclusive: 7.94 µM [inhibitor, single point] |  |
